No constants are given. Whether binding was seen depends on the method and setting. In cells and extracts the contact can be indirect. Some binding calls cover weakened binding; strength is not graded here. For part of these data: Tags and fused reporters may be left off the sequences shown. Blank lines part the entries; values can stand above or below the molecule they belong to.
How the values were obtained:
[1] = biological target: T1, Flag-tagged Yaf2^(Δzinc finger) (aa 44-179) (mouse) (UniProt Q99LW6); experiment: co-IP; Flag co-IP from HEK293T cells transfected with Flag-tagged full-length or deletion constructs; IP buffer 20 mM Tris-HCl pH 8.0, 150 mM NaCl, 10% glycerol, 0.5% Triton X-100, 1 mM EDTA, 4 °C, 4 hrs; Western blot
T1 sequence: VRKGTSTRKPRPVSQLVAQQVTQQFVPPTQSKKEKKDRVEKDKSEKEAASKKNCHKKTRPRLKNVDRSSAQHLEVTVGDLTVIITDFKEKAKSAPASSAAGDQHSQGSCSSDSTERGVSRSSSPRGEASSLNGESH

[2] = biological target: T2, Flag-tagged Yaf2^ΔC-terminus (aa 1-101) (mouse) (UniProt Q99LW6); experiment: as above
T2 sequence: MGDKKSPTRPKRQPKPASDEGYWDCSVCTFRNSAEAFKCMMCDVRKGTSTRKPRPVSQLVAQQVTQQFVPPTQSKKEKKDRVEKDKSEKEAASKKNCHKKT

[3] = biological target: T3, Flag-tagged full-length Yaf2 (mouse) (UniProt Q99LW6); experiment: as above
T3 sequence: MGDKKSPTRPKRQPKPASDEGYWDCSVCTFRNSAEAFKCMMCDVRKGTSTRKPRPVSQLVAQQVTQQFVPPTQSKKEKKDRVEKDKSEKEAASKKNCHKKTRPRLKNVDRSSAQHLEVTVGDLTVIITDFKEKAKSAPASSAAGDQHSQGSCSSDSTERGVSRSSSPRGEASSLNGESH

Full-length RYBP (mouse) = biological target: T4, Full-length RYBP (mouse) (UniProt Q8CCI5); experiment: as above
T4 sequence: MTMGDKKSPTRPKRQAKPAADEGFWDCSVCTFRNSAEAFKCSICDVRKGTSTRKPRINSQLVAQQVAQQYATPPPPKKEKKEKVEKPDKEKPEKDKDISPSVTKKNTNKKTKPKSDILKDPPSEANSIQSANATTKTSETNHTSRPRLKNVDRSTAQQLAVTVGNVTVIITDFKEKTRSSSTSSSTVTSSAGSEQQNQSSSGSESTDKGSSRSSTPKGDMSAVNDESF

[4] = biological target: T5, RYBP^(Δzinc finger) (aa 45-228) (mouse) (UniProt Q8CCI5); experiment: as above
T5 sequence: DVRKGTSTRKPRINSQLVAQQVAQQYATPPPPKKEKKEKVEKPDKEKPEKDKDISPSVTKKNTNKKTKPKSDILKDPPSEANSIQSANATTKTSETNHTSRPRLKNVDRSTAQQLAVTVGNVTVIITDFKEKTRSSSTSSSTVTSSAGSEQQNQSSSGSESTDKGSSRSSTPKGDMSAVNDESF

[5] = biological target: T6, RYBP^ΔC-terminus (aa 1-145) (mouse) (UniProt Q8CCI5); experiment: as above
T6 sequence: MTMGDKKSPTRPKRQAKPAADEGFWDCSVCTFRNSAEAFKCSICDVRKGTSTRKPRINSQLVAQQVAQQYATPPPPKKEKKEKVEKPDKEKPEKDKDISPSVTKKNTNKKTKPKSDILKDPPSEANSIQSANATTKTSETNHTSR

[6] = biological target: T7, endogenous RYBP (HEK293T cells) (human (endogenous in HEK293T)) (UniProt Q8N488); experiment: co-IP; endogenous co-IP from HEK293T cells with an anti-YAF2 or an anti-RYBP antibody; Western blot
T7 sequence: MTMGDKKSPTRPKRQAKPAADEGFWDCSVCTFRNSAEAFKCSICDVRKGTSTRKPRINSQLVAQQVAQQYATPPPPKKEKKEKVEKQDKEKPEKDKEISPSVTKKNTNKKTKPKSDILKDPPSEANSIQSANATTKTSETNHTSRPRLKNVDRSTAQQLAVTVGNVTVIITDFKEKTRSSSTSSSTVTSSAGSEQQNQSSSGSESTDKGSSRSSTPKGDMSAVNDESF

[7] = biological target: T8, endogenous YAF2 (HEK293T cells) (human (endogenous in HEK293T)) (UniProt Q8IY57); experiment: as above
T8 sequence: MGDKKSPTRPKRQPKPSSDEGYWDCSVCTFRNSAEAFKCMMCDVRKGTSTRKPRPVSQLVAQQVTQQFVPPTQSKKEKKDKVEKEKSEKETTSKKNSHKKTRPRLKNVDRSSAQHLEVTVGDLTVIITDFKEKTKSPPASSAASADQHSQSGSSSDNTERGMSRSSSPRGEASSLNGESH

[8] = biological target: FLAG-RING1B (in mESCs) (mouse) (UniProt Q9CQJ4); experiment: co-IP; Flag co-IP from mESCs transfected with Ring1b-Flag, with or without doxycycline induction of Yaf2-HA; Western blot
[9] = biological target: T9, Flag-tagged Ring1b-C-terminus (aa 95-336) (mouse) (UniProt Q9CQJ4); experiment: co-IP; Flag co-IP from HEK293T cells transfected with Flag-tagged full-length or deletion constructs; IP buffer 20 mM Tris-HCl pH 8.0, 150 mM NaCl, 10% glycerol, 0.5% Triton X-100, 1 mM EDTA, 4 °C, 4 hrs; Western blot
T9 sequence: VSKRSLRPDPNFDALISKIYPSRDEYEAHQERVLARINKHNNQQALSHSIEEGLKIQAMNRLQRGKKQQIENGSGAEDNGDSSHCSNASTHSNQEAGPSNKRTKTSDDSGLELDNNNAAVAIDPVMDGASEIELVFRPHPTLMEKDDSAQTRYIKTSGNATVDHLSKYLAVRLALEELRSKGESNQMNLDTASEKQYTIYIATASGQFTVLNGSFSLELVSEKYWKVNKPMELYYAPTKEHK

[10] = biological target: Flag-tagged Ring1b-N-terminus (aa 1-50) (mouse) (UniProt Q9CQJ4); experiment: as above
[11] = biological target: Flag-tagged Ring1b-ring finger region (aa 49-95) (mouse) (UniProt Q9CQJ4); experiment: as above
[12] = biological target: Flag-tagged full-length RING1B (mouse) (UniProt Q9CQJ4); experiment: as above
GST-RING1B = biological target: T10, GST-RING1B (mouse, UniProt Q9CQJ4 1-336); experiment: pull-down; 300 ng GST-RING1B with 1 mg total cell extracts of mESCs and His-mYAF2-mCherry at 0, 100, 300 ng in PBS, 4 °C, 4 hrs; glutathione agarose; Western blot for RYBP; only the target purified
T10 construct: RING1B (Ring1b), the coding region amplified from mouse cDNA, in pGEX-4T; also called pGEX-4T-mRing1b; source: E. coli BL21 (DE3), purified (glutathione agarose); not shown: GST, N-terminal, kept
T10 sequence (looked up): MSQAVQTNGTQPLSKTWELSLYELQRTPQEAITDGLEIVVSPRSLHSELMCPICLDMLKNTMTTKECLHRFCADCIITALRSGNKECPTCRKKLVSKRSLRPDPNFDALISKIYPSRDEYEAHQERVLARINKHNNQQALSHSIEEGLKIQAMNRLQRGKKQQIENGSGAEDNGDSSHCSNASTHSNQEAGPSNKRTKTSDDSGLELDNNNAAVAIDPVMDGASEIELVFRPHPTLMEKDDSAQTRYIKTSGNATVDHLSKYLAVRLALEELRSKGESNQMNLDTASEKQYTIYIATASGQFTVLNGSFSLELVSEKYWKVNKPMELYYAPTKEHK

- binding [1]: binds
- binding [2]: no binding
- binding [3]: binds
- binding (Full-length RYBP (mouse)): binds
- binding [4]: binds
- binding [5]: no binding
Molecule: RING1B (partner of the RYBP and YAF2 constructs in HEK293T cells) (from UniProt Q99496 1-336)

- binding [6]: binds
- binding [7]: binds
Molecule: endogenous RING1B (HEK293T cells) (from UniProt Q99496 1-336)

- binding [8]: binds
B1: His-mYAF2-mCherry (natural protein, mouse, UniProt Q99LW6 1-179, looked up)
chain: MGDKKSPTRPKRQPKPASDEGYWDCSVCTFRNSAEAFKCMMCDVRKGTSTRKPRPVSQLVAQQVTQQFVPPTQSKKEKKDRVEKDKSEKEAASKKNCHKKTRPRLKNVDRSSAQHLEVTVGDLTVIITDFKEKAKSAPASSAAGDQHSQGSCSSDSTERGVSRSSSPRGEASSLNGESH
notes: YAF2 (Yaf2), the coding region amplified from mouse cDNA, in pET-28a; also called His-YAF2; pET-28a-mYaf2-mCherry; source: E. coli BL21 (DE3), purified (Ni-NTA); not shown: His6, N-terminal, kept

- binding [9]: binds
- binding [10]: no binding
- binding [11]: no binding
- binding [12]: binds
B2: YAF2 (partner of the Flag-RING1B constructs in HEK293T cells) (protein, UniProt Q8IY57 1-180)
chain: MGDKKSPTRPKRQPKPSSDEGYWDCSVCTFRNSAEAFKCMMCDVRKGTSTRKPRPVSQLVAQQVTQQFVPPTQSKKEKKDKVEKEKSEKETTSKKNSHKKTRPRLKNVDRSSAQHLEVTVGDLTVIITDFKEKTKSPPASSAASADQHSQSGSSSDNTERGMSRSSSPRGEASSLNGESH

- binding [6]: no binding
B3: endogenous YAF2 (HEK293T cells) (protein, UniProt Q8IY57 1-180)
chain: MGDKKSPTRPKRQPKPSSDEGYWDCSVCTFRNSAEAFKCMMCDVRKGTSTRKPRPVSQLVAQQVTQQFVPPTQSKKEKKDKVEKEKSEKETTSKKNSHKKTRPRLKNVDRSSAQHLEVTVGDLTVIITDFKEKTKSPPASSAASADQHSQSGSSSDNTERGMSRSSSPRGEASSLNGESH

- binding [9]: binds
- binding [10]: no binding
- binding [11]: no binding
- binding [12]: binds
B4: RYBP (partner of the Flag-RING1B constructs in HEK293T cells) (protein, UniProt Q8N488 1-228)
chain: MTMGDKKSPTRPKRQAKPAADEGFWDCSVCTFRNSAEAFKCSICDVRKGTSTRKPRINSQLVAQQVAQQYATPPPPKKEKKEKVEKQDKEKPEKDKEISPSVTKKNTNKKTKPKSDILKDPPSEANSIQSANATTKTSETNHTSRPRLKNVDRSTAQQLAVTVGNVTVIITDFKEKTRSSSTSSSTVTSSAGSEQQNQSSSGSESTDKGSSRSSTPKGDMSAVNDESF

- binding [8]: binds
- binding (GST-RING1B): binds
B5: endogenous RYBP (mESCs) (protein, UniProt Q8CCI5 1-228)
chain: MTMGDKKSPTRPKRQAKPAADEGFWDCSVCTFRNSAEAFKCSICDVRKGTSTRKPRINSQLVAQQVAQQYATPPPPKKEKKEKVEKPDKEKPEKDKDISPSVTKKNTNKKTKPKSDILKDPPSEANSIQSANATTKTSETNHTSRPRLKNVDRSTAQQLAVTVGNVTVIITDFKEKTRSSSTSSSTVTSSAGSEQQNQSSSGSESTDKGSSRSSTPKGDMSAVNDESF

- binding [7]: no binding
B6: endogenous RYBP (HEK293T cells) (protein, UniProt Q8N488 1-228)
chain: MTMGDKKSPTRPKRQAKPAADEGFWDCSVCTFRNSAEAFKCSICDVRKGTSTRKPRINSQLVAQQVAQQYATPPPPKKEKKEKVEKQDKEKPEKDKEISPSVTKKNTNKKTKPKSDILKDPPSEANSIQSANATTKTSETNHTSRPRLKNVDRSTAQQLAVTVGNVTVIITDFKEKTRSSSTSSSTVTSSAGSEQQNQSSSGSESTDKGSSRSSTPKGDMSAVNDESF

Reference: article PMC10630410, “Functional dissection of PRC1 subunits RYBP and YAF2 during neural differentiation of embryonic stem cells” (Nature Communications, 2023)
